{"source": "PubChem BioAssay AID1347073", "about": "(National Center for Advancing Translational Sciences (NCATS), 2019)", "note": "Out of some 45,000 compounds screened, about 200 (0.44%) were called active. About 7% were inconclusive and are not listed. Calls follow the shape of the dose curve; as a rule, active = well fitted activation curve with a large enough effect; inconclusive = small, poorly fitted or top-dose-only effect; inactive = no such curve, though single readings can be large or run the other way. The list shows a part of the results.", "data": [{"experiment": "qHTS of TDP-43 Inhibitors: NCGC Sytravon Library Screen; also: 0% is about no effect; nearly all actives have a fitted effect of over 55% in size", "conditions": "yeast TDP-43 toxicity rescue, BacTiter-Glo growth, 24 h; series mostly up to 46.1 µM; growth rescue (activation): at the top concentration", "how_it_was_run": "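TDP-43-expressing yeast, pregrown in raffinose, seeded at OD600 0.02 in galactose medium with compound for 24 hr at 30 deg C. Growth read by BacTiter-Glo luminescence, so rescue of toxicity appears as activation.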", "values": [{"smiles": "Cc1cc(C)n(Cc2cc(C(=O)O)c3ccccc3n2)n1", "growth rescue (activation)": "inactive: 10.1%"}, {"smiles": "CCc1cccc(NC(=S)N2CCC(c3ccccc3)C2)c1", "note": "(stereo not drawn)", "growth rescue (activation)": "inactive: -4.02%"}, {"smiles": "COC(=O)c1ccccc1NC(=S)N(Cc1ccc2c(c1)OCO2)Cc1cc2cc(OC)ccc2[nH]c1=O", "growth rescue (activation)": "inactive: -1.4%"}, {"smiles": "COc1ccc(N(CC(=O)N/N=C(\\C)c2ccc(C)cc2)S(=O)(=O)c2ccccc2)cc1", "growth rescue (activation)": "inactive: 12.2%"}, {"smiles": "O=C(O)CC/C(=N\\Nc1ccc(S(=O)(=O)N2CCOCC2)cc1[N+](=O)[O-])c1cccs1", "growth rescue (activation)": "inactive: 21.9%"}, {"smiles": "COc1ccccc1NC(=O)CN1CCN(CC(=O)Nc2ccc(F)cc2F)CC1", "growth rescue (activation)": "inactive: -18.3%"}, {"smiles": "COc1ccc(NC(=O)C/C(C)=N/NC(=O)c2ccncc2)c([N+](=O)[O-])c1", "growth rescue (activation)": "inactive: -10%"}, {"smiles": "COc1ccc(CNC(=O)C(C)N2CCN(c3ccc(C(C)=O)cc3)CC2)cc1", "note": "(stereo not drawn)", "growth rescue (activation)": "inactive: -20.5%"}, {"smiles": "Cn1cccc1C(C#N)c1ncc(C(F)(F)F)cc1Cl", "note": "(stereo not drawn)", "growth rescue (activation)": "inactive: 14.3%"}, {"smiles": "Cc1nn(C(C)(C)C)c(OC(=O)c2ccc3c(c2)OCO3)c1Sc1ccccc1", "growth rescue (activation)": "inactive: 21.9%"}, {"smiles": "CCc1ccc(NC(=O)CN(c2ccccc2)S(=O)(=O)N(C)C)cc1", "growth rescue (activation)": "inactive: -6.79%"}, {"smiles": "COc1cc2[nH]c(C(=O)NCC3CCCO3)cc2c(OC)c1OC", "note": "(stereo not drawn)", "growth rescue (activation)": "inactive: -1.88%"}, {"smiles": "CCC(OC(=O)C(C)N1C(=O)C(=O)c2ccccc21)C(=O)Nc1ccccc1OC", "note": "(stereo not drawn)", "growth rescue (activation)": "inactive: 7.36%"}, {"smiles": "CS(=O)(=O)N(CC(=O)Nc1c(F)cccc1F)c1cccc([N+](=O)[O-])c1", "growth rescue (activation)": "inactive: 25.1%"}, {"smiles": "CC(C)(C)CC(=O)Nc1ccc(S(=O)(=O)N2CCCC2)cc1", "growth rescue (activation)": "inactive: 10.2%"}, {"smiles": "OCCN(Cc1ccccc1)Cc1ccccc1O", "growth rescue (activation)": "inactive: -4.76%"}, {"smiles": "CCOC(=O)CC1C(C(=O)OCC)ON2OC(C(=O)OC)C(C(=O)OCC)C12", "note": "(stereo not drawn)", "growth rescue (activation)": "inactive: 19.4%"}, {"smiles": "O=C1c2ccccc2C(=O)N1CCC(O)C[N+](=O)[O-]", "note": "(stereo not drawn)", "growth rescue (activation)": "inactive: -3.96%"}, {"smiles": "Cn1nc(C(C)(C)C)cc1C(=O)O", "growth rescue (activation)": "inactive: 7.49%"}, {"smiles": "O=C(Cc1ccccc1F)NCC(=O)Nc1ccccc1Br", "growth rescue (activation)": "inactive: -1.4%"}, {"smiles": "CCOc1ccc(NC(=O)c2ccc(S(=O)(=O)N3CCOCC3)cc2)cc1", "growth rescue (activation)": "inactive: -0.154%"}, {"smiles": "N#Cc1ccccc1OCC(=O)NNC(=O)CCNC(=O)c1ccccc1", "growth rescue (activation)": "inactive: -6.17%"}, {"smiles": "CCN(CC)CC(=O)Nc1ccc(Oc2ccc(NC(=O)CN(CC)CC)cc2)cc1", "growth rescue (activation)": "inactive: -8.11%"}, {"smiles": "CCCn1c(SCC(=O)NCC)nc2sc3c(c2c1=O)CCC3", "growth rescue (activation)": "inactive: -2.9%"}, {"smiles": "COc1ccc(Cc2nnc(N/N=C/c3ccc(N(C)C)cc3)[nH]c2=O)cc1OC", "growth rescue (activation)": "inactive: 19.2%"}, {"smiles": "CC(C)NC(=O)C1CCN(C2CCN(C(=O)Cc3ccc4c(c3)OCO4)CC2)CC1", "growth rescue (activation)": "inactive: -11.2%"}, {"smiles": "COc1ccc(/C=C2\\NC(=O)C(C=NCc3ccccc3)=C2O)cc1", "growth rescue (activation)": "inactive: 13.1%"}, {"smiles": "CCCCN(C)Cc1c(C(=O)N2CCc3ccccc3C2)nc2ccc(Cl)cn12", "growth rescue (activation)": "inactive: 14%"}, {"smiles": "O=C(Oc1ccccc1)c1ccc2c(c1)C(=O)N(Cc1ccncc1)C2=O", "growth rescue (activation)": "inactive: 17.1%"}, {"smiles": "CCS(=O)(=O)c1ccc2oc(Nc3ccccc3Cl)nc2c1", "growth rescue (activation)": "inactive: -27.7%"}, {"smiles": "Cc1nn(CC(=O)NC(C)C)c(C)c1[N+](=O)[O-]", "growth rescue (activation)": "inactive: 4.42%"}, {"smiles": "O=C1NC(c2ccccc2)=C(c2ccc3ccccc3n2)C(c2ccccc2)N1", "note": "(stereo not drawn)", "growth rescue (activation)": "inactive: 7.07%"}, {"smiles": "O=C(Nc1cccc(-c2nc3ccccc3[nH]2)c1)c1ccccn1", "growth rescue (activation)": "inactive: -12.2%"}, {"smiles": "O=C(Cc1c(F)cccc1Cl)Nc1cc(S(=O)(=O)N2CCCCC2)ccc1N1CCOCC1", "growth rescue (activation)": "inactive: 2.86%"}, {"smiles": "Cc1ccccc1NC(=O)c1nnn(-c2ccc3c(c2)OCCO3)c1N", "growth rescue (activation)": "inactive: 21.8%"}, {"smiles": "CCC(=O)Nc1ccc(Cl)c(NC(=O)c2cccc(OC)c2)c1", "growth rescue (activation)": "inactive: 9.26%"}, {"smiles": "CN(C)S(=O)(=O)c1ccc(-c2csc(N/N=C/c3ccco3)n2)cc1", "growth rescue (activation)": "inactive: 12.8%"}, {"smiles": "Cc1ccc(NC(=S)NN2CCOCC2)c(C)c1", "growth rescue (activation)": "inactive: 11%"}, {"smiles": "O=C1COc2ccc(C(=O)COC(=O)c3ccc(F)cc3Cl)cc2N1", "growth rescue (activation)": "inactive: 11.1%"}, {"smiles": "COc1ccc(NC(=O)C2CCCN(C(=O)Nc3ccc(F)cc3)C2)cc1", "note": "(stereo not drawn)", "growth rescue (activation)": "inactive: 4.91%"}, {"smiles": "Cc1cccc(CC(=O)N2CCC(n3nccc3NC(=O)C3CC3)CC2)c1", "growth rescue (activation)": "inactive: 9.11%"}, {"smiles": "COC(=O)c1cc(CSc2nc3ccccc3c(=O)n2C)oc1C", "growth rescue (activation)": "inactive: 14.1%"}, {"smiles": "COc1ccc(-c2c3c(=O)n(C)c(=O)n(C)c3cn2-c2ccc(O)cc2)cc1", "growth rescue (activation)": "inactive: 12.8%"}, {"smiles": "Cc1ccc(S(=O)(=O)N2CC(O)CC2C(=O)OCc2nc3sc(C)c(C)c3c(=O)[nH]2)cc1", "note": "(stereo not drawn)", "growth rescue (activation)": "inactive: 15.3%"}, {"smiles": "CC1(C)c2ccccc2N2CC(=O)NC21/C=C/c1ccco1", "note": "(stereo not drawn)", "growth rescue (activation)": "inactive: 17.6%"}, {"smiles": "COc1cccc(C(NC(C)=O)c2ccc3cccnc3c2O)c1", "note": "(stereo not drawn)", "growth rescue (activation)": "inactive: -8.71%"}, {"smiles": "Cc1ccc(S(=O)(=O)N(C)c2ccc(OCC(=O)Nc3nnc(C4CC4)s3)cc2)cc1", "growth rescue (activation)": "inactive: 1.19%"}, {"smiles": "Cc1cc(C)c(S(=O)(=O)c2ccccc2)c(OC(=O)c2c(Cl)cccc2Cl)n1", "growth rescue (activation)": "inactive: 39.4%"}, {"smiles": "CC(C)CCNC(=O)NC(=O)COC(=O)CCN=C1NS(=O)(=O)c2ccccc21", "growth rescue (activation)": "inactive: 4.19%"}, {"smiles": "O=C(O)c1cc2c(cn1)[nH]c1ccccc12", "growth rescue (activation)": "inactive: 12.6%"}, {"smiles": "CN(C)CCOc1nc(-c2ccccc2)nc2c1oc1ccccc12", "growth rescue (activation)": "inactive: 12.2%"}, {"smiles": "Cc1cc(/C=C2/C(=O)NN(c3ccccc3)C2=O)c(C)n1-c1cccc(O)c1", "growth rescue (activation)": "inactive: -17%"}, {"smiles": "CC1CN(C(=O)CCC(=O)NCc2cccc(Cl)c2)c2ccccc2S1", "note": "(stereo not drawn)", "growth rescue (activation)": "inactive: 26.3%"}]}]}
